Results on 83 variants are retold here after the RNAGym collection of RNA variant scans (doi:10.1073/pnas.2313332121).

B1: TPR 5TU (parent)
chain: GGAUCUUCUCGAUCUAACAAAAAAGACAAAUCUGCCACAAAGCUUGAGAGCAUCUUCGGAUGCAGAGGCGGCAGCCUUCGGUGGCGCGAUAGCGCCAACGUUCUCAACUAUGACACGCAAAACGCGUGCUCCGUUGAAUGGAGUUUAUCAUG

Variants at the background level are over-represented here.

This data set covers variants of B1. Description: polymerase ribozyme fitness, log enrichment relative to wild type (log ratio); higher = more active; in vitro selection for triplet polymerase activity. The method in brief:
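To select mutant libraries of each subunit of a heterodimeric triplet polymerase ribozyme, built by PCR and transcribed, each was annealed with a biotinylated primer, partner subunit and triplets, then incubated frozen at −7 °C. Extended constructs were gel-excised, captured on streptavidin beads and amplified by RT-PCR, in one round carried out in triplicate. Illumina sequencing of input and output libraries kept genotypes with ≥10 input reads and ≥1 read per output. Fitness is the base-2 logarithm of genotype enrichment relative to wild-type enrichment, from inverse-variance-weighted replicate averages.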
In the case of A66C G126A, the “polymerase ribozyme fitness (log ratio)” value is no more than -4.2.
Take G67C C93G C99G A137U U146A: the “polymerase ribozyme fitness (log ratio)” value is no more than -4.2.
Regarding G67U G74C C103U A121U A137C U144G, the “polymerase ribozyme fitness (log ratio)” value was no more than -4.2.
Turning to G68A C96U C99A, the “polymerase ribozyme fitness (log ratio)” value was no more than -4.2.
As to G65C C99G, the “polymerase ribozyme fitness (log ratio)” value was no more than -4.2.
For G67A C69A, the “polymerase ribozyme fitness (log ratio)” value was no more than -4.2.
On to A64U G92C, for which the “polymerase ribozyme fitness (log ratio)” value was no more than -4.2.
For the variant A66C A89U C93A C125G G143A, the “polymerase ribozyme fitness (log ratio)” value was no more than -4.2.
Take A64U U148G: the “polymerase ribozyme fitness (log ratio)” value is no more than -4.2.
For the variant C69A C93G C96A A98G, the “polymerase ribozyme fitness (log ratio)” value is no more than -4.2.
Regarding G68A G83A C95A A110G, the “polymerase ribozyme fitness (log ratio)” value was no more than -4.2.
Take C69U C87A G141U G143A: the “polymerase ribozyme fitness (log ratio)” value is no more than -4.2.
For G67C G84A U139A G140U the value was no more than -4.2; for A66C C93U A110G C125A U135C, no more than -4.2; for A66G C87A G92A U151G, no more than -4.2.
Take G68U: the “polymerase ribozyme fitness (log ratio)” value is -3.71.
Take G68A: the “polymerase ribozyme fitness (log ratio)” value was -3.29.
Take G68C: the “polymerase ribozyme fitness (log ratio)” value was -3.92.
On to G70A A73G G86U U90C A119C A120U, for which the “polymerase ribozyme fitness (log ratio)” value is no more than -4.2.
With G68C C99G A106G C129U, the “polymerase ribozyme fitness (log ratio)” value is no more than -4.2.
G67C G88U A106G A121C: the “polymerase ribozyme fitness (log ratio)” value was no more than -4.2.
C69A C76U C79A C87A A142C G152C: the “polymerase ribozyme fitness (log ratio)” value was no more than -4.2.
Regarding G67A U78G G86U C99U G141A, the “polymerase ribozyme fitness (log ratio)” value was no more than -4.2.
For the variant A66C C87G C118A G136C G143A, the “polymerase ribozyme fitness (log ratio)” value was no more than -4.2.
As to A66U G84U G94U C108G, the “polymerase ribozyme fitness (log ratio)” value is no more than -4.2.
For the variant C69U C75G U90C G94U U102C A137G, the “polymerase ribozyme fitness (log ratio)” value is no more than -4.2.
As for G65A C105U, the “polymerase ribozyme fitness (log ratio)” value was -0.804.
Turning to G67C G83A, the “polymerase ribozyme fitness (log ratio)” value is no more than -4.2.
Consider G67C C85G G88U U101G A110G U134A A150C, for which the “polymerase ribozyme fitness (log ratio)” value was no more than -4.2.
For G65C G88U A106U G140C the value was no more than -4.2; for G68U C95U C96U A113C G124U, no more than -4.2.
Turning to C69G C87A A91C G126A, the “polymerase ribozyme fitness (log ratio)” value is no more than -4.2.
On to A66C A73G G80C C114A G141A, for which the “polymerase ribozyme fitness (log ratio)” value was no more than -4.2.
In the case of C69A C96U A121C U127G A147U, the “polymerase ribozyme fitness (log ratio)” value was no more than -4.2.
In the case of G70A A73U C87G C96G, the “polymerase ribozyme fitness (log ratio)” value is no more than -4.2.
G68C C93G: the “polymerase ribozyme fitness (log ratio)” value is no more than -4.2.
With A66G C85G C93G C114U C123A U127G the figure was no more than -4.2; with A66U A89G, no more than -4.2.
As to G67A C87U C103U, the “polymerase ribozyme fitness (log ratio)” value is no more than -4.2.
Turning to C69A C76U A98U C125U, the “polymerase ribozyme fitness (log ratio)” value is -1.9.
For the variant A66U A115C G124A, the “polymerase ribozyme fitness (log ratio)” value is no more than -4.2.
With C69A G84A A89G U146C the figure was -2.59; with G68A U82G A91U C99U, no more than -4.2; with G65A C85U U102G C132A, no more than -4.2.
With G67U A89C C96G A106C A119C the figure was no more than -4.2.
Regarding A66G C105U, the “polymerase ribozyme fitness (log ratio)” value is -3.63.
Regarding A66C G81U G84A G141C, the “polymerase ribozyme fitness (log ratio)” value was no more than -4.2.
Regarding C69G G88A U90G U146A, the “polymerase ribozyme fitness (log ratio)” value is no more than -4.2.
For G65U G84U C103U A122G the value was no more than -4.2; for C69U C108U U109G A121U, no more than -4.2.
Consider A66C G100A A106G, for which the “polymerase ribozyme fitness (log ratio)” value was no more than -4.2.
With C69G G126U C131A the figure was no more than -4.2; with C69G C93G, -3.97; with A66G C87U A107G C114U G117U, no more than -4.2.
With C69A G71U, the “polymerase ribozyme fitness (log ratio)” value is -0.808.
Regarding G68C U82G G133U U134A A138U, the “polymerase ribozyme fitness (log ratio)” value was no more than -4.2.
As for A66C C87U C132G G141C A147U A150U, the “polymerase ribozyme fitness (log ratio)” value is no more than -4.2.
With A66U G88A U145G U148C A150C the figure was no more than -4.2; with A66G G92C C95A C103U C108G U151C, no more than -4.2.
In the case of G67C G84C C87G A91C A147C, the “polymerase ribozyme fitness (log ratio)” value was no more than -4.2.
For A66G U111C the value was no more than -4.2.
Consider G67A U77C G92A A110G, for which the “polymerase ribozyme fitness (log ratio)” value was no more than -4.2.
Consider G65C C93U U148G, for which the “polymerase ribozyme fitness (log ratio)” value is no more than -4.2.
C69A U144C: the “polymerase ribozyme fitness (log ratio)” value is -1.07.
In the case of C69A G140U, the “polymerase ribozyme fitness (log ratio)” value is -3.21.
On to A66U A73G A89U U104C A138G G141A, for which the “polymerase ribozyme fitness (log ratio)” value was no more than -4.2.
For the variant C69U G74U C93U C103U G143A, the “polymerase ribozyme fitness (log ratio)” value is no more than -4.2.
For G68A C96U C132G, the “polymerase ribozyme fitness (log ratio)” value was no more than -4.2.
For G65C C75U G126U, the “polymerase ribozyme fitness (log ratio)” value is no more than -4.2.
In the case of A66G G71C C95A G126A, the “polymerase ribozyme fitness (log ratio)” value is no more than -4.2.
For G65C A89C G92A U102G C116U A137G, the “polymerase ribozyme fitness (log ratio)” value was no more than -4.2.
G65C G84A U90G U101G G124U G136U G140C: the “polymerase ribozyme fitness (log ratio)” value was no more than -4.2.
In the case of C69A U109G A138G, the “polymerase ribozyme fitness (log ratio)” value was no more than -4.2.
For A66G A73U G81A G92U U111C, the “polymerase ribozyme fitness (log ratio)” value was no more than -4.2.
In the case of G67A G68C G80C G84U A119U, the “polymerase ribozyme fitness (log ratio)” value is no more than -4.2.
As to A66U U78A A91G G136A, the “polymerase ribozyme fitness (log ratio)” value is no more than -4.2.
For G68C G83U G133U A137C, the “polymerase ribozyme fitness (log ratio)” value is no more than -4.2.
Regarding G68U A73G G83A A89U U90C G136C G141C, the “polymerase ribozyme fitness (log ratio)” value is no more than -4.2.
As to G65U C96A G117A, the “polymerase ribozyme fitness (log ratio)” value was no more than -4.2.
Turning to A66G U90C G92A G117U G140A, the “polymerase ribozyme fitness (log ratio)” value was no more than -4.2.
Take G67C C79A C95U C114A G136A: the “polymerase ribozyme fitness (log ratio)” value is no more than -4.2.
Take G67A C85A A98C C105U: the “polymerase ribozyme fitness (log ratio)” value was no more than -4.2.
For G70A A73U G133A U135G the value was no more than -4.2.
